The text below walks through data of ChEMBL document CHEMBL4888484, “Replenishing the malaria drug discovery pipeline: Screening and hit evaluation of the MMV Hit Generation Library 1 (HGL1) against asexual blood stage Plasmodium falciparum ,using a nano luciferase reporter read-out” (2022).

Out of some 150,000 compounds screened, about 540 (0.36%) showed an effect of 50% or more. This is one part of the list.

This experiment deals with Plasmodium falciparum. The experiment in a line: Primary screen in NF54 nanoGlo assay, in single point, at 2uM, 72h; a lower Z score goes with more inhibition. Format: functional, Erythrocyte. The settings on record: timepoint 72 hour.
As a reminder, the % Inhibition is the drop in the measured response relative to a control, in per cent. Turning to `CO[C@@H](C)c1cccc(NC(=O)N(C)Cc2noc(C)n2)c1`, the “% Inhibition” value was -11% and the Z score was 1.62.

As for `COc1ccc2[nH]c(CN3CCC(c4ccnc(N)n4)CC3)c(C)c2c1`, the “% Inhibition” value was determined as 1% and the Z score is -0.13.

In the case of `O=C(c1cc(-c2ccc3c(c2)CCCC3)on1)N(Cc1ccccc1Cl)[C@H]1CCS(=O)(=O)C1`, the “% Inhibition” value is listed as -9% and the Z score is given as 1.86.

Take `CC[C@@H]1Oc2ccc(OCc3cccc(F)c3)cc2NC1=O`: the “% Inhibition” value is given as -7% and the Z score is on record as 0.98.

`O=C(NC1CCN(C(=O)Cn2cc(C(F)(F)F)ccc2=O)CC1)c1ccncc1`: the “% Inhibition” value was -3% and the Z score was 0.45.

As to `NC(=O)c1ccccc1NC(=O)c1cc(N2CCCC2)ncn1`, the “% Inhibition” value worked out at 0% and the Z score worked out at 0.

For `COCCn1ccc(NC(=O)CN(C)C(C)C)n1`, the “% Inhibition” value was -10% and the Z score turned out to be 0.99.

As for `COC[C@@H](c1ccccn1)N(C)C(=O)CCc1cn2ccccc2n1`, the “% Inhibition” value was -11% and the Z score came out at 1.42.

Turning to `CCCO[C@@H](C)C(=O)N1CCC2(CCC(=O)N(Cc3cccnc3)C2)CC1`, the “% Inhibition” value amounted to 0% and the Z score came out at 0.06.

As to `CCC=C(C)C(=O)N1CCC[C@H](CCC(=O)O)C1`, the “% Inhibition” value is -17% and the Z score worked out at 2.35.

With `COCc1cn(C2CCN(c3nccc4ccccc34)CC2)nn1`, the “% Inhibition” value was -6% and the Z score turned out to be 0.77.

Turning to `CNC(=O)NC(=O)C(C)NC1CCCC1CCC(C)C` (stereo unspecified), the “% Inhibition” value is given as -3% and the Z score was found to be 0.51.

As for `CC(=O)N(CCN1CCOCC1)[C@H]1CCN(C(=O)c2ccc3ncccc3c2)C1`, the “% Inhibition” value was -13% and the Z score turned out to be 1.71.

Take `Cc1nc(-c2ccccc2NC(=O)c2ccccc2C(F)(F)F)cs1`: the “% Inhibition” value was found to be 10% and the Z score is given as -1.25.

For the compound `O=C(NCc1ccccc1Cl)c1csc(-c2ccnc(N3CCCC3)c2)n1`, the “% Inhibition” value was -12% and the Z score is given as 1.53.

On to `COc1ccc(F)c(C(=O)N2C[C@H]3CC[C@@H](C2)N(CC2CC2)C3)c1F`, for which the “% Inhibition” value is recorded as -2% and the Z score turned out to be 0.3.

On to `Cc1cccc(CS(=O)(=O)N2CCC(Oc3cccc4cccnc34)CC2)c1`, for which the “% Inhibition” value is reported as -7% and the Z score came to 1.25.

For `CC(NC(=O)C(C1CC1)N1CCCC1)c1nc(C2CCCC2)no1` (stereo unspecified), the “% Inhibition” value is recorded as -11% and the Z score is on record as 1.35.

As to `O=C(CN1CCOCC1)N1CCN(c2ncnc3cc(-c4ccc(F)cc4)sc23)CC1`, the “% Inhibition” value is -13% and the Z score came to 2.5.

With `O=S(=O)(CC1CCOC1)N1CCC[C@@H]1CCc1ccccn1` (stereo partly specified), the “% Inhibition” value is recorded as -5% and the Z score is recorded as 0.84.

With `Cc1cccc(-c2nc(N)n(C(=O)c3cccc4ccccc34)n2)c1`, the “% Inhibition” value was -11% and the Z score was 1.76.

On to `CC(=O)NCC1CN(C(=O)[C@H]2C3CCC(CC3)[C@@H]2C(F)(F)F)CCO1` (stereo partly specified), for which the “% Inhibition” value is given as -13% and the Z score was 2.43.

`Cn1c(=O)c2sc(N3CCCC3)nc2n(CC(=O)N2CCc3ccccc32)c1=O`: the “% Inhibition” value is listed as -6% and the Z score came out at 0.93.

In the case of `CCO[C@@H](C)c1nc(CONC(=O)C(C)(C)C)cs1`, the “% Inhibition” value is on record as -1% and the Z score was determined as 0.07.

Regarding `CCN(C)C[C@H]1CCN(C(=O)CN(C)C(C)C)C1`, the “% Inhibition” value is -10% and the Z score came out at 1.39.

Take `C[C@H]1CN(C(=O)c2ccc(C(N)=O)cc2)C[C@@H]1C(=O)OC(C)(C)C`: the “% Inhibition” value is -6% and the Z score is listed as 0.78.

For `CCCOc1ccc(CN2CCC[C@H]2c2c(C)noc2C)cc1`, the “% Inhibition” value was found to be 13% and the Z score was -1.79.

Regarding `Cn1cc(C(NC(=O)CCc2cn3ccccc3n2)[C@H]2C[C@@H](O)C2)cn1` (stereo partly specified), the “% Inhibition” value was -14% and the Z score is recorded as 2.38.

Turning to `CCCc1[nH]nc(-c2ccccc2OC)c1NC(=O)c1cccc(F)c1`, the “% Inhibition” value is given as -7% and the Z score is 0.88.

`CCCn1c(=O)c(-c2nc(-c3ccc(F)c(F)c3)no2)c(O)c2ccccc21`: the “% Inhibition” value is 9% and the Z score is given as -1.17.

For `C=CCNC(=O)N(CC(C)C)[C@@H](CC)c1ccccc1`, the “% Inhibition” value was -2% and the Z score came to 0.3.

On to `CC(C)c1noc(CNC(=O)NCc2ccco2)n1`, for which the “% Inhibition” value is recorded as -7% and the Z score came to 0.75.

With `CNC(=O)c1ccc(CN2CCC[C@](CC=C(C)C)(C(=O)O)C2)cc1`, the “% Inhibition” value was -7% and the Z score is on record as 1.28.

In the case of `CCN(CC)[C@H]1CCN(C(=O)c2cc(Cl)ccc2OC2CCN(C(C)=O)CC2)C1`, the “% Inhibition” value is -9% and the Z score is reported as 1.33.

For `CCOc1ccccc1C(=O)N1CCC[C@H]2CN(C)C[C@H]21`, the “% Inhibition” value is -7% and the Z score is recorded as 0.91.

In the case of `Cc1ncc(C(C)NC[C@@H]2CCCN2CC(C)C)c(C)n1` (stereo partly specified), the “% Inhibition” value is on record as -5% and the Z score was 0.57.

`O=C1NC(=O)[C@H](CCC(=O)N(Cc2ccc(F)cc2)C2CCCCC2)N1`: the “% Inhibition” value turned out to be 3% and the Z score is given as -0.53.

Turning to `Cc1cc(C(=O)N[C@@H]2CC=CCC2)no1`, the “% Inhibition” value was -6% and the Z score is on record as 0.98.

`COc1ccccc1CNc1c(-c2nc(C(C)C)no2)cnc2nc(C)ccc12`: the “% Inhibition” value is given as -15% and the Z score came to 1.8.

On to `O=C(c1coc(COc2ccc3c(c2)OCO3)n1)N1[C@@H]2CC[C@H]1C[C@@H](O)C2`, for which the “% Inhibition” value is listed as -13% and the Z score was 1.99.

In the case of `Nc1ccnc(N2CCN(Cc3cncn3C3CC3)C[C@H](O)C2)n1`, the “% Inhibition” value is reported as 1% and the Z score is recorded as -0.16.

In the case of `CCc1nc(CNc2ncnc3[nH]cnc23)no1`, the “% Inhibition” value is given as -1% and the Z score is given as 0.21.

Consider `Cc1nc2c(NC[C@H]3CCCN(S(C)(=O)=O)C3)ncnc2o1`, for which the “% Inhibition” value was -13% and the Z score is given as 2.27.

Turning to `CCn1cc(CNC(=O)c2cccc(S(=O)(=O)N[C@H]3CCOC3)c2)cn1`, the “% Inhibition” value was -5% and the Z score came to 0.97.

As to `Nc1ccc(S(=O)(=O)CCCN2CCCC2)cc1`, the “% Inhibition” value is -10% and the Z score worked out at 1.24.

Regarding `CN(Cc1ccsc1)C(=O)c1ccc(-n2cnnn2)cc1`, the “% Inhibition” value is given as -2% and the Z score is listed as 0.34.

For the compound `N#Cc1c(-c2ccc(F)cc2)ccnc1Oc1ccccc1`, the “% Inhibition” value is listed as -8% and the Z score is reported as 1.07.

As for `Nc1cccc(-c2nc(Cn3cncn3)n[nH]2)c1`, the “% Inhibition” value was determined as 0% and the Z score was -0.07.

For the compound `Cc1cc(N2CC[C@](C)(O)[C@H](O)C2)nc(N2CCOCC2)n1`, the “% Inhibition” value stood at 6% and the Z score is on record as -0.98.

`Cc1cccc(C)c1NC(=O)N1CCC2(CC1)C(=O)N(CC(=O)N1CCCCC1)CN2c1ccccc1`: the “% Inhibition” value amounted to 2% and the Z score is -0.16.

For `CCOc1ccc2nc(-n3nc(C)c4c3NC(=O)C[C@@H]4c3cccnc3)sc2c1`, the “% Inhibition” value amounted to 14% and the Z score is reported as -1.73.

`CCCC[C@@]1(O)COC2(CN(C(=O)c3noc(C)c3COC)C2)C1`: the “% Inhibition” value was -7% and the Z score was 1.05.

Regarding `Cc1ccc(CNC(=O)[C@]2(C)CCCCC(=O)N2)cc1`, the “% Inhibition” value was -12% and the Z score turned out to be 1.32.
